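1) Cells in 96-well plates. 2) Compound, 48 h, 5 concentrations. 3) Linear interpolation between surrounding doses. 4) Unreached endpoint = highest concentration. Abbreviation: GI50, concentration required for 50% inhibition of growth.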 Not every entry of the source has a single result; some have several. The list is limited to them. The source may hold further records. For some assays here: The tests behind the records often covered other concentration ranges, not given here; a value can be the end of its range. For some assays here: The records of an entry repeat one measurement across runs, samples, wells, individuals or studies. Marks in square brackets tell the records apart. Letters count within one entry.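 TGI: total growth inhibition.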 Square brackets hold non-standard residues; d marks the D form. Peptide text beside a SMILES is read from it. Orn = NCCC[CH](N)C(=O)O
Tests used:
Assay in all cases: NCI tumour cell line growth inhibition, 48 h
[1] = test system: SK-OV-3 ovarian
[2] = test system: NCI-H522 lung
[3] = test system: RXF 393 renal
[4] = test system: DU-145 prostate
[5] = test system: HOP-92 NSCLC
[6] = test system: A498 renal
[7] = test system: OVCAR-4 ovarian
[8] = test system: LOX IMVI melanoma
[9] = test system: UO-31 renal
[10] = test system: KM20L2 colon
[11] = test system: SF-268 CNS
[12] = test system: A549 NSCLC
[13] = test system: CAKI-1 renal
[14] = test system: DMS 273 small cell lung
[15] = test system: HCT-116 colon
[16] = test system: RPMI-8226 leukemia
[17] = test system: DMS 114 small cell lung
[18] = test system: SNB-78 CNS
[19] = test system: P388 leukemia
[20] = test system: NCI/ADR-RES ovarian
[21] = test system: SNB-75 CNS
[22] = test system: P388/ADR leukemia
[23] = test system: HCT-15 colon
[24] = test system: KM12 colon
[25] = test system: SK-MEL-28 melanoma
[26] = test system: M19-MEL melanoma
[27] = test system: NCI-H226 lung
[28] = test system: OVCAR-5 ovarian
[29] = test system: NCI-H460 lung
[30] = test system: SN12C renal
[31] = test system: SF-295 CNS
[32] = test system: COLO 205 colon
[33] = test system: K-562 leukemia
[34] = test system: SF-539 CNS
[35] = test system: MOLT-4 leukemia
[36] = test system: SK-MEL-2 melanoma
[37] = test system: SK-MEL-5 melanoma
[38] = test system: OVCAR-8 ovarian
[39] = test system: DLD-1 colon
[40] = test system: U251 CNS
[41] = test system: MALME-3M melanoma
[42] = test system: XF 498 CNS
[43] = test system: OVCAR-3 ovarian
[44] = test system: UACC-62 melanoma
[45] = test system: HOP-62 NSCLC
[46] = test system: HT29 colon
[47] = test system: SNB-19 CNS
[48] = test system: HL-60(TB) leukemia
[49] = test system: SW-620 colon
[50] = test system: UACC-257 melanoma
[51] = test system: CCRF-CEM leukemia
[52] = test system: IGROV1 ovarian
[53] = test system: HCC-2998 colon
[54] = test system: EKVX NSCLC
[55] = test system: NCI-H23 lung

For `COc1cc([C@@H]2c3cc4c(cc3[C@H](O)[C@H]3COC(=O)[C@@H]23)OCO4)cc(OC)c1OC`, which TGI [1] is on record?
Its TGI is > 100 µM [sample A, mean of 2 tests] and 8.73 µM [sample B, 1 test].

And the TGI [2]?
The TGI was > 100 µM [sample A, mean of 2 tests] and 1.48 µM [sample B, mean of 2 tests].

And the TGI [3]?
The TGI was > 100 µM [sample A, 1 test] and 827 nM [sample B, 1 test].

What about the TGI [4] of the same compound?
The TGI was 672 nM [sample A, mean of 2 tests] and > 10 µM [sample B, mean of 2 tests].

And the GI50 [5]?
The GI50 was > 36.8 µM [sample A, mean of 2 tests] and 490 nM [sample B, mean of 2 tests].

What about the TGI [6] of the same compound?
Its TGI is > 100 µM [sample A, mean of 2 tests] and 818 nM [sample B, mean of 2 tests].

With `COC(=O)C12OCC34C(CC5C(C)=CC(=O)C(O)C5(C)C3C(O)C1O)OC(=O)C(OC(=O)CC(C)C)C24` (configuration not stated) as the compound, how does the GI50 [7] read?
Its GI50 is 69.3 nM, 50 nM [mean of 3 tests] and 3.06 nM [mean of 6 tests].

And the TGI [7]?
The TGI was 377 nM, 118 nM [mean of 3 tests] and 20.6 nM [mean of 6 tests].

What about the TGI [8] of the same compound?
The TGI was 3.09 nM, 213 nM, 500 nM.

And the TGI [9]?
The TGI was 46.7 nM, 2.44 µM, 219 nM.

What about the TGI [1] of the same compound?
Its TGI is 27.4 nM, 2.06 µM, 79.5 nM.

What about the TGI [10] of the same compound?
Its TGI is 31.4 nM, 6.61 µM, 500 nM.

And the TGI [11]?
Its TGI is 15.8 nM, 226 nM, 71.8 nM.

And the TGI [12]?
The TGI was 24.3 nM, 437 nM, 102 nM.

And the TGI [13]?
Its TGI is 90.8 nM, 1.1 µM, 208 nM.

And the TGI [14]?
The TGI was 1.76 nM and 19.5 nM.

What about the GI50 [15] of the same compound?
Its GI50 is 50 nM [mean of 3 tests] and < 32 nM [mean of 4 tests] and 0.822 nM [mean of 7 tests].

And the TGI [15]?
The TGI was 233 nM [mean of 3 tests] and 125 nM [mean of 4 tests] and 7.52 nM [mean of 7 tests].

And the TGI [16]?
Its TGI is 1.6 nM and 51.1 nM.

And the TGI [17]?
The TGI was 9.76 nM and 572 nM.

What about the TGI [18] of the same compound?
Its TGI is 39.2 nM, 1.24 µM, 90.1 nM.

And the TGI [19]?
The TGI was 3.83 nM and 290 nM.

And the TGI [20]?
Its TGI is 24.7 nM and 14.6 µM.

What about the TGI [21] of the same compound?
The TGI was 9.98 nM, 163 nM, 81.2 nM.

What about the TGI [22] of the same compound?
The TGI was 79.7 nM and 994 nM.

And the TGI [23]?
The TGI was 27.9 nM, 425 nM, 616 nM.

What about the TGI [24] of the same compound?
The TGI was 13.5 nM, 494 nM, 65.4 nM.

What about the TGI [25] of the same compound?
Its TGI is 8.52 nM, 135 nM, 53.7 nM.

And the TGI [26]?
Its TGI is 8.47 nM and 106 nM.

And the TGI [27]?
Its TGI is 5.08 nM and 141 nM.

What about the TGI [28] of the same compound?
The TGI was 11.6 nM, 541 nM, 828 nM.

And the TGI [3]?
Its TGI is 9.05 nM, 210 nM, 54.5 nM.

And the TGI [29]?
The TGI was 2.06 nM and 162 nM.

What about the TGI [30] of the same compound?
Its TGI is 58.5 nM, 3.19 µM, 375 nM.

What about the TGI [31] of the same compound?
Its TGI is 8.58 nM and 346 nM.

What about the TGI [32] of the same compound?
Its TGI is 12.4 nM, 1.12 µM, 55.6 nM.

And the GI50 [33]?
Its GI50 is 0.617 nM and 50 nM.

What about the TGI [33] of the same compound?
Its TGI is 39.6 nM and 503 nM.

What about the TGI [34] of the same compound?
Its TGI is 2.28 nM and 52.2 nM.

What about the GI50 [35] of the same compound?
The GI50 was < 32.1 nM [mean of 3 tests] and 50 nM [mean of 5 tests] and 0.211 nM [mean of 6 tests].

And the TGI [35]?
Its TGI is 132 nM [mean of 3 tests] and 811 nM [mean of 5 tests] and 3.24 nM [mean of 6 tests].

And the TGI [36]?
Its TGI is 15.2 nM, 192 nM, 387 nM.

What about the TGI [37] of the same compound?
Its TGI is 2.91 nM and 213 nM.

What about the TGI [38] of the same compound?
The TGI was 19.7 nM, 245 nM, 63.1 nM.

What about the TGI [39] of the same compound?
Its TGI is 13.4 nM, 141 nM, 88.9 nM.

What about the TGI [40] of the same compound?
Its TGI is 7.27 nM and 686 nM.

And the TGI [41]?
The TGI was 6.03 nM and 64.8 nM.

What about the TGI [42] of the same compound?
The TGI was 4.18 nM, 94 nM, 73.9 nM.

What about the TGI [43] of the same compound?
The TGI was 4.93 nM and 159 nM.

What about the TGI [44] of the same compound?
The TGI was 12 nM, 194 nM, 61.6 nM.

What about the TGI [45] of the same compound?
Its TGI is < 16.3 nM, 246 nM, 79.3 nM.

What about the TGI [46] of the same compound?
The TGI was 7.13 nM, 504 nM, 256 nM.

What about the TGI [47] of the same compound?
The TGI was 7.65 nM and 2.6 µM.

And the TGI [48]?
The TGI was 0.738 nM, 94.8 nM, 500 nM.

What about the TGI [49] of the same compound?
The TGI was 99.4 nM, 341 nM, 1.99 µM.

And the TGI [50]?
The TGI was 13.2 nM, 343 nM, 62.7 nM.

And the TGI [51]?
The TGI was 6.68 nM, 140 nM, 316 nM.

What about the TGI [52] of the same compound?
Its TGI is 5.59 nM, 61.7 nM, 69.4 nM.

What about the TGI [53] of the same compound?
The TGI was 4 nM and 70.9 nM.

What about the TGI [54] of the same compound?
The TGI was 30.6 nM and 1.22 µM.

And the TGI [55]?
The TGI was 3.89 nM, 111 nM, 283 nM.

Which TGI [7] does the source give for `CC(C)CC1NC(=O)C(CCCN)NC(=O)C(C(C)C)NC(=O)C2CCCN2C(=O)C(Cc2ccccc2)NC(=O)C(CC(C)C)NC(=O)C(CCCN)NC(=O)C(C(C)C)NC(=O)C2CCCN2C(=O)C(Cc2ccccc2)NC1=O` (configuration not stated) (cyclo(FPV[Orn]LFPV[Orn]L); configuration not given here) here?
The TGI was 56.7 nM [1 test] and 1.19 µM [mean of 2 tests].

Reference: PubChem BioAssay (NCI)
